For experiment [1], the target named is T1, pb2(95)-Ba (barnase fused to the first 95 amino acids of the N-terminal region of pre-cytochrome b2) (UniProt P00175 1-95; P00648 48-157).
T1 construct: range 1-95;domain: folded ribonuclease barnase (Ba), 110-residue
T1 sequence: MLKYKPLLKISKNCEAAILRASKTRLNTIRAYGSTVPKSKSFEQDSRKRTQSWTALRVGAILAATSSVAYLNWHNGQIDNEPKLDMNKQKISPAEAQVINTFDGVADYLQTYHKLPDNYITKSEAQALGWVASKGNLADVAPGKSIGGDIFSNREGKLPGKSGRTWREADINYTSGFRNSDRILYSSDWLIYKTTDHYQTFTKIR

Experiment [2] addresses T2, pb2(65)-Ba (barnase fused to the first 65 amino acids of the N-terminal region of pre-cytochrome b2) (UniProt P00175 1-65; P00648 48-157).
T2 construct: range 1-65;domain: folded ribonuclease barnase (Ba), 110-residue
T2 sequence: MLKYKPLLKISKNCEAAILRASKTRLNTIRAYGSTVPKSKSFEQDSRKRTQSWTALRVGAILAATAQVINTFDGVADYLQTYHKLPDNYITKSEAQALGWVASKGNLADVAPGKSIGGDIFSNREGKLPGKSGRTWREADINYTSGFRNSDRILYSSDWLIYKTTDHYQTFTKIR

B1: FhuA ΔC/Δ4L protein nanopore (engineered Escherichia coli ferric hydroxamate uptake component A lacking the cork domain and loops L3, L4, L5 and L11) (other)
chain: LKEVQFKAGTDSLFQTGFDFSDSLDDDGVYSYRLTGLARSANAQQKGSEEQRYAIAPAFTWRPDDKTNFTFLSYFQNEPETGNSEGSTYSRNEKMVGYSFDHEFNDTFTVRQNLRFAENKTSQNSVYGYGVNSEGSYLARKYVVDDEKLQNFSVDTQLQSKFATGDIDHTLLTGVDFMRMRNDINAWFGYNSEGSGPYRILNKQKQTGVYVQDQAQWDKVLVTLGGRYDWADQESLNRVAGTTDKRDDKQFTWRGGVNYLFDNGVTPYFSYSESFEPSSQVGKDGNIFAPSKGKQYEVGVKYVPEDRPIVVTGAVYNLTKTNNLMADPEGSFFSVEGGEIRARGVEIEAKAALSASVNVVGSYTYTDAEYTTDTTYKGNTPAQVPKHMASLWADYTFFDGPLSGLTLGTGGRYTGSSYGDPANSFKVGSYTVVDALVRYDLARVGMAGSNVALHVNNSEGSQVVATATFRF
Take B1: the values for the koff in experiment [1] and in experiment [2] were 3000 s⁻¹ and 9000 s⁻¹, respectively. The kon in experiment [1] came out at 280000 M⁻¹ s⁻¹; in experiment [2], 200000 M⁻¹ s⁻¹.
